According to PMC4336329 (PLoS ONE, 2015):
The whole screen tested about 310,000 compounds, of which about 2,200 (0.71%) showed an effect of 50% or more. Effects have a minus sign here. This is one part of the list.

Target: human ether-à-go-go-related gene (hERG) potassium channel (human, UniProt Q12809)
Test: primary screen, population patch clamp on CHO cells stably expressing hERG

Sequence of human ether-à-go-go-related gene (hERG) potassium channel (Q12809 whole entry, looked up): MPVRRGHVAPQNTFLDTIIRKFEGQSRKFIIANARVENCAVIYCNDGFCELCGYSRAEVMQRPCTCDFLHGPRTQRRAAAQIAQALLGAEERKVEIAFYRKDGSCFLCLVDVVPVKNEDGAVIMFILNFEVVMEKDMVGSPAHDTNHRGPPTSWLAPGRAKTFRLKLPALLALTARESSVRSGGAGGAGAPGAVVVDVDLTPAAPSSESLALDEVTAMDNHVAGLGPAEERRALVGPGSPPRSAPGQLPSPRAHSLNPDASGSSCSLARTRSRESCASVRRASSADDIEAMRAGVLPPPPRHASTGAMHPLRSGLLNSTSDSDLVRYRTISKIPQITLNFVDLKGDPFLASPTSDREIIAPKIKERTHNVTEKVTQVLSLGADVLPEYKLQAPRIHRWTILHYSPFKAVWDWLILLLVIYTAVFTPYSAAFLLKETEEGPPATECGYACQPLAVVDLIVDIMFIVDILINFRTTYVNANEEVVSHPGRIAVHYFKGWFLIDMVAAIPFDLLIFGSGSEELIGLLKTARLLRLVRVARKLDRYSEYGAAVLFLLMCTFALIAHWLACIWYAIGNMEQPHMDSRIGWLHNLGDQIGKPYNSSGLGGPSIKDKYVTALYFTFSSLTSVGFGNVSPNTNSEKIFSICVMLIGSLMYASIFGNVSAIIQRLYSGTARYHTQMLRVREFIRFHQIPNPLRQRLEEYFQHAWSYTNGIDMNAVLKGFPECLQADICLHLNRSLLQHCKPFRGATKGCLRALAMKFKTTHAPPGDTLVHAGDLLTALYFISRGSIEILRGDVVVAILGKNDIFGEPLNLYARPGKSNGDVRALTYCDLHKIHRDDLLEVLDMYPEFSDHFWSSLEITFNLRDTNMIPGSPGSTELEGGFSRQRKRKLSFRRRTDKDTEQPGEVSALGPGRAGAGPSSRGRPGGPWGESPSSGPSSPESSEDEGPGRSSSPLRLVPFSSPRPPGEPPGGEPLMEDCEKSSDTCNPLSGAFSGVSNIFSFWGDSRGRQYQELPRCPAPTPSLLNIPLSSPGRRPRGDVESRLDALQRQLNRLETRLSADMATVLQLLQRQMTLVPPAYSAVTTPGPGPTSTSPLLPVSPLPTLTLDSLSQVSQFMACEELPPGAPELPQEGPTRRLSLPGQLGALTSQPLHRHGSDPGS

Row | SMILES | hERG current change (%, negative = inhibition) at 1uM
1 | CCC(=O)Nc1nonc1-c1nc2ccccc2n1CCC(C)C | 5.5%
2 | O=C(CCc1nnc2ccc(NCc3ccco3)nn12)N1CCN(c2ccc(F)cc2)CC1 | 7.48%
3 | O=c1c2ccccc2nc(-c2ccccc2)n1-c1nccs1 | 11.6%
4 | Br.CCCCCCCCCCn1c2c(c(=N)c3c1CCC3)CCC2 | -71.7%
5 | c1ccc(CN2CCN(c3nc4ccccc4c4ccccc34)CC2)cc1 | 0.223%
6 | Cc1ccc(NCC(=O)Nc2c(C)n(C)n(-c3ccccc3)c2=O)cc1S(=O)(=O)N(C)C | 7.49%
7 | Cc1cccc(N(C)S(=O)(=O)c2ccc3c(c2)NC(=O)CC(=O)N3)c1 | 19.5%
8 | Cc1c(NC(=O)COC(=O)C(c2ccc(Cl)cc2)C(C)C)c(=O)n(-c2ccccc2)n1C (stereo not drawn) | 14.1%
9 | CCOc1cc(C)nc(NCCc2ccc(OC)c(OC)c2)n1 | 8.65%
10 | CN(C)C(CNC(=O)c1cccc(S(=O)(=O)Nc2ccccc2Cl)c1)c1ccco1 (stereo not drawn) | -2.84%
11 | O=S(=O)(NCC(c1ccco1)N1CCc2ccccc21)c1ccccc1 (stereo not drawn) | 2.67%
12 | COc1cccc(NC(=O)NC2CCN(Cc3nnnn3Cc3ccc(F)cc3)CC2)c1 | -20%
13 | Cc1ccc(C(=O)NC(=S)N2CCN(C)CC2)cc1 | 2.6%
14 | O=C(N/N=C/c1ccc(OC(=O)c2cccs2)cc1)c1cccc(F)c1 | 9.18%
15 | COC(=O)c1[nH]c2ccc(C)cc2c1NC(=O)CN1CCN(c2ccc(F)cc2)CC1 | 7%
16 | N/C(=N\c1nc2ccccc2o1)NC(=O)c1ccc(Cl)cc1 | 18%
17 | CCn1c(SCc2ccccc2)nnc1C1CCN(S(=O)(=O)c2ccc(OC)cc2)CC1 | 0.325%
18 | COc1ccc(F)cc1C(=O)C1CCCN(C(=O)c2ccc(C(C)=O)s2)C1 (stereo not drawn) | 10.1%
19 | COc1c(Cl)cnn(-c2ccc(Cl)c(Cl)c2)c1=O | 12.8%
20 | CSc1nc2c(c(=O)n1-c1ccc(F)cc1)SCC2 | 11.4%
21 | O=C(O)C1CC=C(Cl)CC1C(=O)NC1CCCCC1 (stereo not drawn) | 14.5%
22 | CNC(=O)[C@@]1(Cc2ccccc2)C=C[C@@H](C)N1C(C)=O | 6.62%
23 | Cc1cc(C)n(-c2nc(NCC(C)O)c3c4c(sc3n2)CCCC4)n1 (stereo not drawn) | -0.392%
24 | O=C(Nc1ccc(S(=O)(=O)Nc2cnc3ccccc3n2)cc1)c1cccc(OC(F)F)c1 | 0.539%
